{"source": "the supplement of paper PMC8728848", "assay_in_all_cases": "glycan array binding signal (z-score within array); higher = stronger binding", "details_in_all_cases": "glycan notation: IUPAC condensed, linker removed", "key": {"[1]": {"target": "Neu5Ac(a2-3)Gal(b1-4)GlcNAc(b1-6)[Gal(b1-3)]GalNAc", "outline": "(§1)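 Negative Z-scores can be read as non-binding. The Z-score is calculated within each array and then averaged across arrays of one protein sequence at different concentrations or buffers and across linkers. Arrays, 3228 in all, were curated from the Consortium for Functional Glycomics database and kept only where the protein sequence was available.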"}, "[2]": {"target": "Neu5Ac(a2-3)Gal(b1-4)GlcNAc(b1-6)[Neu5Ac(a2-3)Gal(b1-3)]GalNAc", "outline": "as §1"}, "[3]": {"target": "Neu5Ac(a2-3)Gal(b1-4)GlcNAc6S", "outline": "as §1"}, "[4]": {"target": "Neu5Ac(a2-3)Gal(b1-4)[Fuc(a1-3)]GlcNAc", "outline": "as §1"}, "[5]": {"target": "Neu5Ac(a2-3)Gal(b1-4)[Fuc(a1-3)]GlcNAc(b1-2)Man", "outline": "as §1"}, "[6]": {"target": "Neu5Ac(a2-3)Gal(b1-4)[Fuc(a1-3)]GlcNAc(b1-3)Gal", "outline": "as §1"}, "[7]": {"target": "Neu5Ac(a2-3)Gal(b1-4)[Fuc(a1-3)]GlcNAc(b1-3)Gal(b1-4)GlcNAc", "outline": "as §1"}, "[8]": {"target": "Neu5Ac(a2-3)Gal(b1-4)[Fuc(a1-3)]GlcNAc(b1-3)Gal(b1-4)[Fuc(a1-3)]GlcNAc(b1-3)Gal(b1-4)[Fuc(a1-3)]GlcNAc", "outline": "as §1"}, "[9]": {"target": "Neu5Ac(a2-3)Gal(b1-4)[Fuc(a1-3)]GlcNAc(b1-3)GalNAc", "outline": "as §1"}, "[10]": {"target": "Neu5Ac(a2-3)Gal(b1-4)[Fuc(a1-3)]GlcNAc(b1-6)[Gal(b1-3)]GalNAc", "outline": "as §1"}, "[11]": {"target": "Neu5Ac(a2-3)Gal(b1-4)[Fuc(a1-3)]GlcNAc(b1-6)[Neu5Ac(a2-3)Gal(b1-3)]GalNAc", "outline": "as §1"}, "[12]": {"target": "Neu5Ac(a2-3)Gal(b1-4)[Fuc(a1-3)]GlcNAc6S", "outline": "as §1"}, "[13]": {"target": "Neu5Ac(a2-3)Gal6S(b1-4)GlcNAc", "outline": "as §1"}, "[14]": {"target": "Neu5Ac(a2-3)Gal6S(b1-4)[Fuc(a1-3)]GlcNAc", "outline": "as §1"}, "Neu5Ac(a2-3)GalNAc": {"target": "Neu5Ac(a2-3)GalNAc", "outline": "as §1"}, "[15]": {"target": "Neu5Ac(a2-3)GalNAc(b1-4)GlcNAc", "outline": "as §1"}, "[16]": {"target": "Neu5Ac(a2-3)[GalNAc(b1-4)]Gal(b1-4)Glc", "outline": "as §1"}, "[17]": {"target": "Neu5Ac(a2-3)[GalNAc(b1-4)]Gal(b1-4)GlcNAc", "outline": "as §1"}, "[18]": {"target": "Neu5Ac(a2-3)[GalNAc(b1-4)]Gal(b1-4)GlcNAc(b1-3)GalNAc", "outline": "as §1"}, "[19]": {"target": "Neu5Ac(a2-3)[Neu5Ac(a2-6)]GalNAc", "outline": "as §1"}, "Neu5Ac(a2-6)Gal": {"target": "Neu5Ac(a2-6)Gal", "outline": "as §1"}, "[20]": {"target": "Neu5Ac(a2-6)Gal(b1-3)GlcNAc(b1-3)[Gal(b1-4)GlcNAc(b1-6)]Gal(b1-4)Glc", "outline": "as §1"}, "Neu5Ac(a2-6)Gal(b1-4)Glc": {"target": "Neu5Ac(a2-6)Gal(b1-4)Glc", "outline": "as §1"}, "[21]": {"target": "Neu5Ac(a2-6)Gal(b1-4)GlcNAc", "outline": "as §1"}, "[22]": {"target": "Neu5Ac(a2-6)Gal(b1-4)GlcNAc(b1-2)Man", "outline": "as §1"}, "[23]": {"target": "Neu5Ac(a2-6)Gal(b1-4)GlcNAc(b1-2)Man(a1-3)Man(b1-4)GlcNAc(b1-4)GlcNAc", "outline": "as §1"}, "[24]": {"target": "Neu5Ac(a2-6)Gal(b1-4)GlcNAc(b1-2)Man(a1-3)[Gal(b1-4)GlcNAc(b1-2)Man(a1-6)]Man(b1-4)GlcNAc(b1-4)GlcNAc", "outline": "as §1"}, "[25]": {"target": "Neu5Ac(a2-6)Gal(b1-4)GlcNAc(b1-2)Man(a1-3)[GlcNAc(b1-2)Man(a1-6)]Man(b1-4)GlcNAc(b1-4)GlcNAc", "outline": "as §1"}, "[26]": {"target": "Neu5Ac(a2-6)Gal(b1-4)GlcNAc(b1-2)Man(a1-3)[GlcNAc(b1-4)][Neu5Ac(a2-6)Gal(b1-4)GlcNAc(b1-2)Man(a1-6)]Man(b1-4)GlcNAc(b1-4)GlcNAc", "outline": "as §1"}, "[27]": {"target": "Neu5Ac(a2-6)Gal(b1-4)GlcNAc(b1-2)Man(a1-3)[Man(a1-6)]Man(b1-4)GlcNAc(b1-4)GlcNAc", "outline": "as §1"}}, "note": "Some of the results follow."}
{"binder": "Blon2468mut (Bifidobacterium longum) (protein) MTFIKQMMPRYVASMTAGIVAAAMAATCAFAPVANADAVSPTQETIQSTGRHFMVYYRAWRDVTMKGVNTDLPDDNWISMYDIPYGVDVVNIFSYVPSGQEEQAQPFYDKLKSDYAPYLHSRGIKLVRGIDYTGVAVNGFRTFMKEQNKTESEATEADYDAYAKQVIDKYMISVGLDGLDIDMQAHPNDADVKISDNVIRALSKHIGPKSAKPDTTMFLYDTNGSYLNPFKNVAECFDYVAYQQYGSSSDRTARAAADYQPYIGNEFVPGLTFPEEGDMNNRWYDATEPYEESHFYQVASYVREHNLGGMFVYALDRDGRNYDEDLRRIVPSNLLWTKTAIAESEGMALDTAKTAANHYLDRMSLRQVIDDNAASADKARDMVGKAANLYETNKAVLGGDYGEGFSNTYDPTLEAGLLGIDISVLQQQIDKSSEIIGADTAESDAKTALRMARDAAIDGLTGKIYTADQVSAWSQALKAALDATVPVPTPDSTDQNGNRDKVTNHKVQGQPKQLSATGISTDIIVAVGVTLAIAGVALSLSRKLS", "values": [{"measurement": "glycan array binding signal (z-score)", "setting": "[1]", "value": -0.074}, {"measurement": "glycan array binding signal (z-score)", "setting": "[2]", "value": -0.032}, {"measurement": "glycan array binding signal (z-score)", "setting": "[3]", "value": -0.041}, {"measurement": "glycan array binding signal (z-score)", "setting": "[4]", "value": -0.096}, {"measurement": "glycan array binding signal (z-score)", "setting": "[5]", "value": -0.048}, {"measurement": "glycan array binding signal (z-score)", "setting": "[6]", "value": -0.081}, {"measurement": "glycan array binding signal (z-score)", "setting": "[7]", "value": -0.02}, {"measurement": "glycan array binding signal (z-score)", "setting": "[8]", "value": -0.068}, {"measurement": "glycan array binding signal (z-score)", "setting": "[9]", "value": -0.04}, {"measurement": "glycan array binding signal (z-score)", "setting": "[10]", "value": -0.067}, {"measurement": "glycan array binding signal (z-score)", "setting": "[11]", "value": -0.064}, {"measurement": "glycan array binding signal (z-score)", "setting": "[12]", "value": -0.064}, {"measurement": "glycan array binding signal (z-score)", "setting": "[13]", "value": -0.051}, {"measurement": "glycan array binding signal (z-score)", "setting": "[14]", "value": -0.07}, {"measurement": "glycan array binding signal (z-score)", "setting": "Neu5Ac(a2-3)GalNAc", "value": -0.052}, {"measurement": "glycan array binding signal (z-score)", "setting": "[15]", "value": -0.035}, {"measurement": "glycan array binding signal (z-score)", "setting": "[16]", "value": -0.066}, {"measurement": "glycan array binding signal (z-score)", "setting": "[17]", "value": -0.075}, {"measurement": "glycan array binding signal (z-score)", "setting": "[18]", "value": -0.069}, {"measurement": "glycan array binding signal (z-score)", "setting": "[19]", "value": -0.059}, {"measurement": "glycan array binding signal (z-score)", "setting": "Neu5Ac(a2-6)Gal", "value": -0.068}, {"measurement": "glycan array binding signal (z-score)", "setting": "[20]", "value": -0.056}, {"measurement": "glycan array binding signal (z-score)", "setting": "Neu5Ac(a2-6)Gal(b1-4)Glc", "value": -0.055}, {"measurement": "glycan array binding signal (z-score)", "setting": "[21]", "value": -0.072}, {"measurement": "glycan array binding signal (z-score)", "setting": "[22]", "value": -0.069}, {"measurement": "glycan array binding signal (z-score)", "setting": "[23]", "value": -0.082}, {"measurement": "glycan array binding signal (z-score)", "setting": "[24]", "value": -0.077}, {"measurement": "glycan array binding signal (z-score)", "setting": "[25]", "value": -0.092}, {"measurement": "glycan array binding signal (z-score)", "setting": "[26]", "value": -0.072}, {"measurement": "glycan array binding signal (z-score)", "setting": "[27]", "value": -0.068}]}
